In the supplement of paper PMC10126150 one finds switch fluorescence ratio data, which are given here for 79 sequences.

Sequences with one replicate were seen in a single cluster, so their values are uncertain.

This data set concerns ATP. Kind of data set: switch fluorescence ratio, 500 uM ATP over buffer (Cy3 cluster intensity, sum of 5 cycles each) (fold (ratio)); higher = stronger signal-on switching upon ATP binding; sequences stand for … in TCGTCGGCAGCGTCAGATGTGTATAAGAGACAGTTTTTTTTTTTTTTTTTTTTTTTTT…TC. The conditions noted are these: aptamer strand: ATP DNA aptamer (quencher-CACCTGGGGGAGTATTGCGGAGGAAGG + anchor), 100 nM annealed; ATP concentration: 500 uM; one replicate. A digest of the protocol:
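Exposure to 500 uM ATP lasted 15 min at 22 °C before imaging, and a selection-buffer image was taken beforehand, for Cy3-labelled switching-strand clusters on a modified Illumina MiSeq flow-cell annealed to 100 nM quencher-labelled ATP aptamer. Five buffer/ATP cycles were run with NaOH stripping and re-annealing between them. The fluorescence ratio per cluster is summed target-cycle over summed buffer-cycle Cy3 intensity, averaged per switch-domain sequence. Clusters outside 100-1000 RFU were excluded.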

Regarding ATTGTAAAGG, the switch fluorescence ratio was determined as 0.969.
Regarding GCAGGGAGGC, the switch fluorescence ratio was determined as 1.09.
For the sequence CTCCACCGCT, the switch fluorescence ratio is 3.64.
In the case of TTTCCGAGC, the switch fluorescence ratio was 1.51.
As to GTAGGCGGAC, the switch fluorescence ratio came to 0.999.
For AGATCTTCTC the value was 0.985; for GGGCACGCAC, 1.59; for GTGGATGGCC, 1.04.
For GATAGGCAGT the value was 1.15.
For AGTGTGCCGG the value was 0.96; for AACTACGGG, 1.09; for TACAAGAACC, 1.32.
Take AGCTTGCGCA: the switch fluorescence ratio came to 0.973.
Consider CAAAAAATCT, for which the switch fluorescence ratio was 0.993.
The same measure for TATGAGGTTT: 0.973; for TACGTTCTTT: 1; for TCCTGGGGAG: 1.12.
The same measure for ATCGTCAGTG: 0.949; for CTTGTCGGA: 1.02.
Take AAACGGGATC: the switch fluorescence ratio came out at 0.979.
For the sequence TATCTCAGTG, the switch fluorescence ratio stood at 0.948.
For ACATTAGGC the value was 1.02.
Regarding ACTAAACAGA, the switch fluorescence ratio came out at 1.06.
For CTGGTTCTCG the value was 0.995; for ACGTAGACCT, 1.25; for GGTTGGACGG, 0.951.
Take ATAACATTCT: the switch fluorescence ratio is 1.1.
The same measure for GGATATAGTA: 0.949; for AGTCTCGATA: 0.963; for CTATCTCAGA: 0.999.
CCAAGAAATA: the switch fluorescence ratio was determined as 1.
For TTGATGCGTA the value was 1.05; for ACACCAAGTT, 1.04.
The same measure for ATTCGGAGGA: 0.974.
The same measure for ACGCTGAGCT: 1.05.
For the sequence TTGAAGTAAC, the switch fluorescence ratio was 0.999.
The same measure for TAGCGGCACG: 0.967; for GGGTGTATCT: 1.01; for CTCCACCAGT: 5.47.
Take AATGTTTTAA: the switch fluorescence ratio is 0.992.
Regarding TACAAAGCCG, the switch fluorescence ratio amounted to 1.08.
For GCAGGGGCGG the value was 1.29; for TGGGTATGCG, 1.05; for TAGGTAGTAG, 1.03.
The same measure for TCGTGATCAA: 1.04; for GTCAAGTATC: 1.02; for TAGAACCGAG: 1.3.
For the sequence AAGGGTAGG, the switch fluorescence ratio came out at 0.996.
As for TTCCAAACCC, the switch fluorescence ratio came to 1.08.
The same measure for TGATGAAGTG: 1.02; for AGGGACCCTG: 0.997.
TAATGCGATC: the switch fluorescence ratio came out at 1.11.
The same measure for ACCAAAACTA: 1.02; for GTTGGAACGT: 0.961.
For GCGTTACCCT the value was 0.998.
The same measure for GGCAGCATTG: 1.02; for CTTGGCTAGG: 1.03.
As for TTGGGCGCTT, the switch fluorescence ratio was found to be 1.95.
With TAGAATCAGA, the switch fluorescence ratio was 0.978.
For ATTTGCGTCC the value was 0.998; for CTCGGATGGA, 1.04; for GACTTTGCGT, 0.997.
In the case of CTACGGGGAA, the switch fluorescence ratio is 1.1.
As for GATGGTTGCC, the switch fluorescence ratio stood at 0.99.
Take GGATCATATG: the switch fluorescence ratio came out at 1.01.
The same measure for TGAGTAAGA: 0.968.
GAAAAATGTG: the switch fluorescence ratio was determined as 0.996.
The same measure for GACTTGT: 0.98; for TTAAATACTG: 1.39; for GGTGAGCCTC: 0.989.
For TGTGATTCTC the value was 1.03; for GACAGCGGTC, 1.08; for TTGATAGCGT, 0.997.
As for TCGACCTGTA, the switch fluorescence ratio turned out to be 1.05.
Turning to GATAGGCGC, the switch fluorescence ratio stood at 1.03.
For the sequence TCAAAATCGC, the switch fluorescence ratio came out at 0.95.
As for TAGGTCCGCC, the switch fluorescence ratio was 0.989.
The same measure for CAATTCCGGG: 1.11; for ACATTTTC: 1.01.
